From publication PMC7864062
No constants are given. Whether binding was seen depends on the method and setting. Binding seen in cells or lysates may run through a third protein. Some binding calls cover weakened binding; strength is not graded here. Where a sequence is shown, tags or fusion partners need not be part of it.

Sequences of proteins named here, by UniProt entry; tags and fusion partners are left off. A change or cut given only in a name is not applied to a line headed by its entry.
UniProt Q8N4G2: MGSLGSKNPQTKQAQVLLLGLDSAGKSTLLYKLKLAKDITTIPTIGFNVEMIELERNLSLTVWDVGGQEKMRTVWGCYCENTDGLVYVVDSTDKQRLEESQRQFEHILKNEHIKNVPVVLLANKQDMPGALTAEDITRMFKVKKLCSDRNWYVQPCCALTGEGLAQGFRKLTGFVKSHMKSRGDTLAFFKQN

Legend:
Experiment in all cases: co-IP; GFP trap beads incubated with cell lysates from HeLa cells expressing the GFP-tagged constructs and HA-Sys1; bound proteins analyzed by Western blotting
[1] = target: T1, GFP-tagged Arfrp1 (Arfrp1–GFP) (human) (UniProt Q13795)
T1 sequence: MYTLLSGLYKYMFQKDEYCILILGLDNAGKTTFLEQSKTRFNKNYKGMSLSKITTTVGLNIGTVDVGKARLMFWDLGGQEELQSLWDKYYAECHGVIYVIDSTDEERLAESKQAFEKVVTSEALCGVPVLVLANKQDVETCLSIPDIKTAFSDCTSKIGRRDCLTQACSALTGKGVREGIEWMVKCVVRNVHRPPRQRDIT

Arfrp1^1–17–GFP (human) = target: T2, Arfrp1^1–17–GFP (human) (UniProt Q13795)
T2 sequence: MYTLLSGLYKYMFQKDE

[2] = target: T3, Arfrp1^1–17–GFP with Y2A mutation on the Arfrp1 helix (human) (UniProt Q13795)
T3 sequence: MATLLSGLYKYMFQKDE

Arfrp1^Y2A–GFP (human) = target: T4, Arfrp1^Y2A–GFP (human) (UniProt Q13795)
T4 sequence: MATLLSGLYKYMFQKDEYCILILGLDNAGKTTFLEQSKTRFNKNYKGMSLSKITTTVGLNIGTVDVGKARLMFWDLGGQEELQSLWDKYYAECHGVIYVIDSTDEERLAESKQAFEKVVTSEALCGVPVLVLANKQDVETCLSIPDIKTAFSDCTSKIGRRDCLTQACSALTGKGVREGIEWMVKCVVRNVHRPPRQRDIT

[3] = target: T5, Arfrp1^1–17-Arl14^18-192–GFP (human) (UniProt Q13795+Q8N4G2)
T5 sequence: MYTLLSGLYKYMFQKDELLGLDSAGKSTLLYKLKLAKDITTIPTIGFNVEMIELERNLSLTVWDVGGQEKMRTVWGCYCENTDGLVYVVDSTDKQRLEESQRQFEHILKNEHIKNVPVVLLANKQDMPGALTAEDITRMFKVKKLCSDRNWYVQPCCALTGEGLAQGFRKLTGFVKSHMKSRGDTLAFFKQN

[4] = target: T6, Arfrp1^1–17-Arl14^18-192–GFP with Y2A mutation on the Arfrp1 helix (human) (UniProt Q13795+Q8N4G2)
T6 sequence: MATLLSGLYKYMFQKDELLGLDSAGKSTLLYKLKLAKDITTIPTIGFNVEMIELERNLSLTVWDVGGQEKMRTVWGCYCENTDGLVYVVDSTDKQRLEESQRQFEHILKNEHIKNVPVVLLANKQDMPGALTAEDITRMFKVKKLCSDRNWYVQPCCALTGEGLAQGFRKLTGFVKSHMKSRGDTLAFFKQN

B1: Human Sys1 with 3× HA tag at its C terminus (protein, UniProt Q8N2H4 1-156)
chain: MAGQFRSYVWDPLLILSQIVLMQTVYYGSLGLWLALVDGLVRSSPSLDQMFDAEILGFSTPPGRLSMMSFILNALTCALGLLYFIRRGKQCLDFTVTVHFFHLLGCWFYSSRFPSALTWWLVQAVCIALMAVIGEYLCMRTELKEIPLNSAPKSNV
- binding [1]: binds
- binding (Arfrp1^1–17–GFP (human)): binds
- binding [2]: no binding
- binding (Arfrp1^Y2A–GFP (human)): no binding
- binding [3]: binds
- binding [4]: no binding
